Source: paper PMC12136788
The list shows a part of the results.

T1: UNK ZnF1-3 (human, UniProt Q9C0B0 31-174)
T1 sequence: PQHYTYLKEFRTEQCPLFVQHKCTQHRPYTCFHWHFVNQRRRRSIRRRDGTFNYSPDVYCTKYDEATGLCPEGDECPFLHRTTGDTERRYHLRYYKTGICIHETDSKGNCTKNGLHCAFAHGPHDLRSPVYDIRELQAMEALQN

B1: 91492014_91492134_263_3pUTR_ENSMUSG00000024109_ENSMUST00000160844|mouse|control|control (ssRNA)
RNA: GGGAGUUCUACAGUCCGACGAUCGAUAAGGCGACUGCUGCUGCCUUUUUCCGAGGCGUCAGGCUUGAGCGUCUAUCUCCAAGAGUGAGGAAGGGAAGAACAUGGAACAGAGAGGAGCAGCAGGGGGAGCAGGAGGAGGAGAGGCAACAGAGGAUUGAGCAUCA
B2: chr4:76572280:76572281:-_ENSG00000138757_ENST00000395719|hu_hu|FALSE|FALSE (ssRNA)
RNA: GGGAGUUCUACAGUCCGACGAUCCUUUAGCUCAUUUUCAUCAAUAUCAUGUGGCAAGUUACCAACAAAAAGUUGAUGACUAUCUGGAUAGCGAAUUAUUCUACGGUUGUCAGAGUCAUUCUGUUCCAUAUCUCCUCUGCCUGGCAACAGAGGAUUGAGCAUCA
B3: chr7:135839730:135839731:+_ENSMUSG00000042105_ENSMUST00000151237|mus_mus|motif|central (ssRNA)
RNA: GGGAGUUCUACAGUCCGACGAUCACGCUGAUGUUUUGAAUUACAGUGGUUCUUUUAAUAGUCACAAGACUUGACACUGCGGAUAAAUAACAAAAUCGGAAUGCUUGUCAGAGUUUUAACAGACAUAAUGUUAAACUGAGAGUCCAACAGAGGAUUGAGCAUCA
B4: 42268982_42270895_591_3pUTR_ENSMUSG00000029861_ENSMUST00000143278|mouse|control|control (ssRNA)
RNA: GGGAGUUCUACAGUCCGACGAUCUUCCAUGACACCUGCUAGGAAACGUGCCUCCUUCUCGCCAUCACUGAGGUCAGAGUAGGCGUCUGUAUCCCUGCGCACAGCCUCAUGGCUAUGUUGUGGCUGAAUUGUUGGAGCCUUCCCCAACAGAGGAUUGAGCAUCA
B5: chr1:66486420:66486421:+_ENSMUSG00000015222_ENSMUST00000077355|mus_hu|FALSE|FALSE (ssRNA)
RNA: GGGAGUUCUACAGUCCGACGAUCUAAUGUAUUUUUUUUAAAUAGGGAGAGAACCCUGCUAACAUCUACUUUCACAUAUCUAAAAUUGCAACACCAAAGGGUGCAGGAGACACAGAUACUGUGAAUAAAGAAGUAUAAUAUUCACAACAGAGGAUUGAGCAUCA
B6: chr2:18084439:18084440:+_ENSMUSG00000026743_ENSMUST00000114669|mus_mus|FALSE|FALSE (ssRNA)
RNA: GGGAGUUCUACAGUCCGACGAUCUGAGCAGCGUAGGAGAUUUCUGAAGACUAGAGCUUGUUACACUUCCUGCAGCUGAUGCUACGGACGAUGUUGGUGAAGCAGAAGAAACUGAGAGGUGAGAAACAUUUUCUUGAUUUUUGUCAACAGAGGAUUGAGCAUCA
B7: chr11:77340908:77340909:-_ENSG00000074201_ENST00000525064|hu_hu|hu_hu_hu_mus_True|38_98 (ssRNA)
RNA: GGGAGUUCUACAGUCCGACGAUCGUUUGGAUCCCUGGAUAAUGCAUGUAAACUAAUGGUGGGGUAUUCCAGUGAGAAUCCUAAUCCCGAACCAUCUAACCAAGACAGGCGGCUCUCCGCGAUGUAAAGCGUGCCGGUGCCGAGCAACAGAGGAUUGAGCAUCA
B8: chr4:95690885:95690886:+_ENSMUSG00000028572_ENSMUST00000156910|mus_mus|mus_mus_mus_hu_False|58_68 (ssRNA)
RNA: GGGAGUUCUACAGUCCGACGAUCUUUAGAAAAUGUUAAAUACCAUGCUAAAAUAUUUUCAAAGGCUAGUCUUAUUUUACUAAAAGACACAGGCAAGCAGACACUACAAGAAUAUAUGAAAAUGAAACUCAACAAUAUAACUGUCAACAGAGGAUUGAGCAUCA
B9: chr2:172803269:172803270:+_ENSG00000128708_ENST00000264108|hu_hu|FALSE|FALSE (ssRNA)
RNA: GGGAGUUCUACAGUCCGACGAUCAAAAGCAGUUUCAUCAUCCCCAAAGAGUUGAUGGGUAUACUCAGGAAAGAAAGUUCUAAUGUCAUUUUCAAGAUCUUCAGGAAAACGAACUAAUUUUAGUUCAAUUGCUGUGUUGGUGUUCAACAGAGGAUUGAGCAUCA
B10: 59264645_59265857_1752_CDS_ENSMUSG00000026024_ENSMUST00000027178|mouse|control|control (ssRNA)
RNA: GGGAGUUCUACAGUCCGACGAUCCUCCAGGUGGAUUACCUCUUUACCAUCCAGACACUUGACACACAACGGCUGAAGCCUGGGCAGGACGUCGCCGUGCCCUAGCUGCCCUUCCUUGCCUUUCCCCCAGGUCCACACCUCUGUCAACAGAGGAUUGAGCAUCA
B11: chr17:60770872:60770873:+_ENSG00000011028_ENST00000303375|hu_hu|hu_hu_hu_mus_True|8_48 (ssRNA)
RNA: GGGAGUUCUACAGUCCGACGAUCUCUUUAAAAAAAAAAAAAAAAAGACAAACAAUAAUAGCACAUUUCGAGAAUCAAGAACUACAAAGAAAGGGCCGCUUUGAGUUUUUGUUCACAUCGUCCUGCAACGCUGUCGCGGGACUGCAACAGAGGAUUGAGCAUCA
B12: chr7:141441981:141441982:+_ENSG00000106028_ENST00000265304|hu_mus|hu_hu_hu_mus_False|38_88 (ssRNA)
RNA: GGGAGUUCUACAGUCCGACGAUCCUCAUGUCUUACAAACUGACGAAGUACCUGUAACACAGGUCUUCGAAACAUGGCUUCUGUUUUUCUUACAACCAGUCUAAUCUGCUUUUCCUAAAGGAAAGAAAGAAAAGAGAAAAAUGACAACAGAGGAUUGAGCAUCA
B13: chr11:77336104:77336105:-_ENSG00000074201_ENST00000525064|hu_mus|hu_hu_hu_mus_False|1_78 (ssRNA)
RNA: GGGAGUUCUACAGUCCGACGAUCCUCACACAUUGCUGUGAACAUCGCCUCCAAUGCUGAUUUAUCACUGGGCACAAAUCGAAAUUCAGAAAUGGGUUCAACAUCAUCAUUGUCUUCCUCAUCUUCAUCAGAGAGAGCAGGUUCCAACAGAGGAUUGAGCAUCA
B14: chr18:52893488:52893489:-_ENSG00000196628_ENST00000354452|hu_hu|hu_hu_hu_mus_True|8_48 (ssRNA)
RNA: GGGAGUUCUACAGUCCGACGAUCUAUUUAGACCAUUUCCGCGGAGUUAUGGCAUUUACUCAGUGCUGAUAGGUGGAAAAACUACUUGAACAGGGAUUUUUUUUUUCCUUAAUACAUGCCAAGAUUGGUGUGGCUGUAAAACAGCAACAGAGGAUUGAGCAUCA
B15: chr2:48026839:48026840:+_ENSG00000116062_ENST00000540021|hu_hu|hu_hu_hu_mus_False|98_98 (ssRNA)
RNA: GGGAGUUCUACAGUCCGACGAUCAUAGUGAGCCACUAGAGUCCUAAAUCUGGAACAGUGGCGGUCAUCCGAAAACUGGCCGAUGAAAAACUUGCCCAGUGAAGUGUCCACAAAGCAAACACCAUACACACGAGUGUGACCAGACAACAGAGGAUUGAGCAUCA
B16: chr19:45035288:45035289:+_ENSMUSG00000036097_ENSMUST00000096053|mus_hu|motif|central (ssRNA)
RNA: GGGAGUUCUACAGUCCGACGAUCAUUCUCCAGGGGAAACAAAGAUCUAAAAUCAAUCCCCAUAUUGAAAAACACAGCUGCGGCAUCAGACAAUGAUGGGAUCCAUGGCCAAACUGGUGAGUCACUGAAGGUAUCAUUUCUAAUCAACAGAGGAUUGAGCAUCA
B17: chr3:33703679:33703680:+_ENSMUSG00000027677_ENSMUST00000099153|mus_hu|FALSE|FALSE (ssRNA)
RNA: GGGAGUUCUACAGUCCGACGAUCUUCUAACUGUCCUCCUCUCUCUACAAGUGUCUGGCAGAGGUAUUUUCUUGCAUUUCUGUGAGUUGGACAGUUUUCUAAUGCAAGCUCAAAAUCUUCUAUUGCUUUGUUCAAACUUCCUUUCAACAGAGGAUUGAGCAUCA
B18: chr14:66974463:66974464:+_ENSMUSG00000022044_ENSMUST00000074523|mus_hu|mus_mus_mus_hu_False|8_78 (ssRNA)
RNA: GGGAGUUCUACAGUCCGACGAUCUUGUAGGACGACUUAUUCAGGGGAUCGGCCAGGAAGCAAGAGCAGAACAAGGACACCAGCGGGAGCUCCUUCAUCUUCUCUUUGUAGGCAGCAAGGGUCAUGUUGGCUGGAAUUGGUGGCCAACAGAGGAUUGAGCAUCA
B19: chr17:65740002:65740003:+_ENSG00000130935_ENST00000581375|hu_hu|hu_hu_hu_mus_False|1_98 (ssRNA)
RNA: GGGAGUUCUACAGUCCGACGAUCAACAAAUCUUUCUCUGGAUGAAGAACAGGAAGAUUCAUAUUAAAAAAAAUAUAUAUCCAUCAAGUUAGGUGUGGUGGCCACACCUUUACUCCCAGCACUUUGGGAGGUGGAUCCUCUAUUCAACAGAGGAUUGAGCAUCA
B20: chr2:126738436:126738437:-_ENSMUSG00000027366_ENSMUST00000028844|mus_mus|FALSE|FALSE (ssRNA)
RNA: GGGAGUUCUACAGUCCGACGAUCAGGCACGGAGCAUACACUCAUGACUGAGUAACCCAUCAGUUUUGGCACCCUGAUAACUACUGGCAACUUUUCAGCAUUCUCGAAAGGCCCAGCAGCAAGUUCCACCAUGAUGCUCUCACCCAACAGAGGAUUGAGCAUCA
B21: 186295313_186296657_6180_CDS_ENSG00000047410_ENST00000367478|human|control|control (ssRNA)
RNA: GGGAGUUCUACAGUCCGACGAUCCAUCCCUGUGUCAUCUUCAUCAUCAUCAUCAUCUUCCUCAUCCUCUUCAUAAUCCUCAUGUUCUCCAUCAUUUUCAUCAUCAUCCUCUUCUUCAUCAUCACUGUCAAUUACAAUGACAUCCAACAGAGGAUUGAGCAUCA
B22: chr7:11082375:11082376:+_ENSG00000106443_ENST00000423760|hu_mus|FALSE|FALSE (ssRNA)
RNA: GGGAGUUCUACAGUCCGACGAUCGUUUUUCGUCUUUCUCGGCAUCCUUGUAAGAGGAGGAUCAAGGCAGCCGAGAUGAUAAUGCAGUUUACAGGUGUCACACAGUAAAAGAAGAUGCUGAUCAUGGUUCUUCUUACAAAUUCCCAACAGAGGAUUGAGCAUCA

Each binder was assayed against T1, UNK ZnF1-3 (assay: nsRBNS (natural sequence RNA bind-n-seq); RBNS binding buffer (assumed for nsRBNS): 25 mM Tris pH 7.5, 150 mM KCl, 3 mM MgCl2, 0.01% Triton X-100, 500 ug/ml BSA, 20 U/ml SUPERase-In, 4 C; UNK is unkempt and MSI1 is Musashi-1; names of the RNAs are library labels; protein concentration not given here; high values mean tight binding).
In the case of B1, the binding signal is reported as 1.94 enrichment R. B2 gave a binding signal of 0.756 enrichment R. With B3 the binding signal was 0.78 enrichment R. For B4, the binding signal was 0.423 enrichment R. In the case of B5, the binding signal is reported as 1.41 enrichment R. B6 gave a binding signal of 1.39 enrichment R. B7 was tested, and the binding signal was 1.09 enrichment R. B8 gave a binding signal of 1.47 enrichment R. For B9, the binding signal was 0.682 enrichment R. Binder B10 has a binding signal of 0.752 enrichment R. Binder B11 has a binding signal of 2.82 enrichment R. In the case of B12, the binding signal is reported as 0.707 enrichment R. In the case of B13, the binding signal is reported as 0.913 enrichment R. Binder B14 has a binding signal of 0.801 enrichment R. B15 gave a binding signal of 1.29 enrichment R. With B16 the binding signal was 1.18 enrichment R. In the case of B17, the binding signal is reported as 0.42 enrichment R. For B18, the binding signal was 2.25 enrichment R. B19 showed a binding signal of 1.62 enrichment R. With B20 the binding signal was 1.03 enrichment R. B21 showed a binding signal of 0.564 enrichment R. B22 showed a binding signal of 0.797 enrichment R.
